This test has as its target KEAP1 Kelch (kelch-like ECH-associated protein 1, Kelch domain) (human) (UniProt Q14145). Kind of test: fluorescence polarisation; competition: unlabelled peptide in serial dilution against the protein domain (master mix at four times the KD) with its FITC-labelled probe peptide; 50 mM KPO4 or NaPO4 pH 7.5; Ki calculated from IC50.
Chain of UniProt Q14145 (Q14145 whole entry, the tested form may be a part): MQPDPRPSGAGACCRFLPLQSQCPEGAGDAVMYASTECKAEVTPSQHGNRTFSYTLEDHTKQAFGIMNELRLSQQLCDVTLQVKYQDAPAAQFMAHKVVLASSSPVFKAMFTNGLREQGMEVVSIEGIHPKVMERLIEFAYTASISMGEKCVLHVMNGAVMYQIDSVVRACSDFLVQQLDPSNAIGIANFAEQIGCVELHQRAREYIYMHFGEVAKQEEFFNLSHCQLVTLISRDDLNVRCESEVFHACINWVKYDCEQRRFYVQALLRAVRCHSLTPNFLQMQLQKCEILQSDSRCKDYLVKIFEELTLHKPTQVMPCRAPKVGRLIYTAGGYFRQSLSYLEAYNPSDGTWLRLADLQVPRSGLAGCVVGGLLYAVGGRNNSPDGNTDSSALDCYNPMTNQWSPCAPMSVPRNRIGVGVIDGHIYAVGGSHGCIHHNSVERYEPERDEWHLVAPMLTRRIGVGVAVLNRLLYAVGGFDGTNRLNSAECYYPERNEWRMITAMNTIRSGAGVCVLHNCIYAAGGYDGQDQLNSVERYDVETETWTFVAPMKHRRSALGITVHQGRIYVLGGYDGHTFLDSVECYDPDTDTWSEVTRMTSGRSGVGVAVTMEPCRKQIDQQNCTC

In general, IC50 refers to the midpoint of a concentration-inhibition curve. As usually defined, the Ki is the equilibrium dissociation constant of an inhibitor or competing ligand from its target. Consider Ac-GIIDPSTGECFPVTDY-NH2 [PLEC 4457-4471 peptide with an extra C-terminal Y, R4466C (sheet label R4472C)], for which the IC50 was 2300 nM and the Ki is 790 nM.

The values above are taken from article PMC8769072, “Proteome‐scale mapping of binding sites in the unstructured regions of the human proteome” (Molecular Systems Biology, 2022).
